Drawing on PubChem BioAssay AID463173 (ICCB-Longwood Screening Facility, Harvard Medical School, 2010), this text covers survival for 88 compounds.

The whole screen tested about 52,000 compounds, of which about 4,300 (8.3%) were called active. No stated cut-off is given here; in the data, active means survival mostly below about 52% (no sharp cut-off); inactive means mostly above about 56%. The list shows a part of the results.

The test deals with DeltatarO mutant. The test is described as follows: S. aureus survival, RN4220 and DeltatarO strains – OD600, teichoic acid synthesis inhibitors, primary screen (AID 463173). The following applies: S. aureus RN4220 wild type/DeltatarO growth, OD600, 18 h, active compounds read low, screened at 18.75 µg/mL (by protocol).
`O=C(Cn1c(SCC(=O)Nc2ccc(F)cc2)nc2ccccc21)NCc1ccc(Cl)cc1`: the survival was inactive: 89%.

For `Nc1ncc(S(=O)(=O)Nc2ccc(OC(F)(F)F)cc2)cn1`, the survival is inactive: 79%.

Turning to `CCOC(=O)c1ccccc1NC(=O)Cn1c(=O)n(-c2ccc(CC)cc2)c(=O)c2c(C)c(C(=O)N(C)C)sc21`, the survival is active: 0%.

For the compound `Cc1ccc(S(=O)(=O)N2Cc3ccccc3CC2C(=O)N2CCCCC2)cc1` (stereo not drawn), the survival was inactive: 78%.

As to `CCOc1ccccc1CNC(=O)c1ccc2c(c1)nc1n2CCC(C)C1` (stereo not drawn), the survival was inactive: 122%.

Regarding `COc1ccc(OC)c(NC(=O)c2c(NCc3ccc(N(C)C)cc3)sc3c2CCCC3)c1`, the survival was inactive: 124%.

As to `COc1cc(OC)cc(C(=O)Nc2ccc3c(c2)n(C)c(=O)c(=O)n3C)c1`, the survival is inactive: 70%.

Turning to `COc1ccc(S(=O)(=O)N(CC(=O)Nc2ccc3c(c2)OCO3)c2ccc(C)cc2)cc1`, the survival was inactive: 49%.

Turning to `O=C(NCc1ccccc1Cl)c1ccc(NC(=O)N2CCSc3ccccc32)cc1`, the survival was inactive: 59%.

As for `COc1ccccc1N(CC(=O)Nc1cc(C)cc(C)c1)S(C)(=O)=O`, the survival is inactive: 82%.

Regarding `O=C(Nc1nnc(S(=O)(=O)N2CCCCCC2)s1)c1ccccc1`, the survival is active: 38%.

With `CCc1ccc(NS(=O)(=O)c2c(-c3ccccc3)csc2C(=O)OC)cc1`, the survival was inactive: 78%.

Regarding `Cc1cc(NCc2ccc(Cl)cc2)n2cnnc2n1`, the survival is inactive: 87%.

Turning to `CCc1cccc(NC(=O)Cn2ccn3nc(-c4ccc(OC)c(OC)c4)cc3c2=O)c1`, the survival is inactive: 84%.

`CN(Cc1ccco1)S(=O)(=O)c1nnc(NC(=O)c2ccccc2)s1`: the survival was active: 23%.

Turning to `O=C(Nc1ccc(F)cc1)c1ccc2c(c1)NC(=O)c1ccccc1S2`, the survival was inactive: 85%.

Turning to `Cc1cccc(-c2noc(-c3ccc(NCc4cccnc4)c([N+](=O)[O-])c3)n2)c1`, the survival is inactive: 69%.

Take `CCOc1ccc(NC(=O)c2nnn(-c3ccc(F)c(Cl)c3)c2C)cc1`: the survival is inactive: 91%.

With `CCOC(=O)c1cc2ccc(O)cc2oc1=O`, the survival is inactive: 75%.

For the compound `CC1=C(C(=O)Nc2ccccc2)C(c2ccccn2)n2nc(SCc3ccccc3Cl)nc2N1` (stereo not drawn), the survival is inactive: 149%.

In the case of `CCC(=O)Nc1cccc(OCc2cc(=O)n3cc(C)ccc3n2)c1`, the survival was inactive: 55%.

`Cc1nc2c(-c3ccccc3)c(C)nn2c(C)c1CCC(=O)NCc1ccccc1`: the survival was inactive: 85%.

On to `CCn1cc2nc(SCc3cccc(C)c3)n(CCc3ccccc3)c(=O)c2n1`, for which the survival is inactive: 71%.

As to `CCOC(=O)c1ccc(NC(=O)CCC(=O)N2CCSc3ccccc32)cc1`, the survival is inactive: 59%.

Regarding `Cc1ccc(S(=O)(=O)n2nc(-c3ccco3)nc2NCc2ccc(N(C)C)cc2)cc1`, the survival is inactive: 70%.

Turning to `Cn1cc(S(=O)(=O)N2CCCCC2)cc1C(=O)Nc1ccc(OC(F)(F)F)cc1`, the survival is inactive: 84%.

Turning to `O=C(Cn1cc(S(=O)(=O)c2ccccc2)c(=O)c2cc3c(cc21)OCO3)Nc1ccccc1`, the survival is inactive: 108%.

Regarding `CCc1ccc2occ(CC(=O)Nc3sc4c(c3C(=O)NCCOC)CCCC4)c2c1`, the survival is inactive: 77%.

With `Cc1ccc(S(=O)(=O)C(CNC(=O)c2ccc(C(F)(F)F)cc2)c2ccco2)cc1` (stereo not drawn), the survival is inactive: 130%.

Turning to `Cc1noc(-c2ccc(-c3noc(-c4cccc(Cl)c4)n3)cc2)n1`, the survival is inactive: 60%.

As for `Cc1nc2nc(SCC(=O)NC3CCC(C)CC3)nn2c(C)c1Cc1ccccc1Cl` (stereo not drawn), the survival was inactive: 83%.

For the compound `COc1ccc(CNC(=O)CN(C(=O)c2ccc(N3CCCC3)nc2)c2ccccc2C)cc1`, the survival is inactive: 75%.

In the case of `Cc1ccc(-n2nc(C)c(C(=O)NCCCN3CCN(c4cccc(Cl)c4)CC3)c2-n2cccc2)cc1`, the survival was active: 0%.

With `CCc1ccccc1NC(=O)C1CCN(c2nc3ccccc3[nH]2)CC1`, the survival is inactive: 85%.

On to `COc1ccc(C(=O)NCc2nc(-c3cccc(C)c3)no2)cc1OC`, for which the survival was inactive: 98%.

Turning to `Cc1nc(-c2ccc(S(=O)(=O)NCc3ccc(F)cc3)cc2)co1`, the survival is inactive: 89%.

For the compound `COCc1c(N)c(C)nc(Cl)c1C#N`, the survival is inactive: 91%.

In the case of `COc1cccc(C(=O)COC(=O)c2cc(-c3cccs3)nc3ccccc23)c1`, the survival is inactive: 54%.

As to `Cc1cc(NS(=O)(=O)c2cn(C)c(C)n2)ccc1Br`, the survival is inactive: 92%.

For the compound `Cc1ccc2cc3cc(C(=O)N4CCN(c5ccccc5)CC4)sc3nc2c1`, the survival is inactive: 90%.

On to `COc1cccc(NC(=O)/C(C#N)=C/c2ccc(-c3ccc(C)cc3)o2)c1`, for which the survival was inactive: 50%.

In the case of `Cc1ccc(S(=O)(=O)Nc2cccc(-c3ccc(N4CCCC4)nn3)c2)c(C)c1`, the survival is inactive: 67%.

On to `O=C(Cn1cc(S(=O)(=O)Cc2cccc(Cl)c2)c2ccccc21)NCc1ccccc1Cl`, for which the survival is inactive: 91%.

As for `CCOC(=O)c1c(C)[nH]c(C)c1S(=O)(=O)NCC(=O)NCc1cccc(Br)c1`, the survival is inactive: 130%.

Consider `CC(C)CCSc1nnc2n(-c3ccccc3)c(=O)c3c4c(sc3n12)CC(C)CC4` (stereo not drawn), for which the survival was inactive: 70%.

As to `CCc1ccc(NC(=O)Cn2c(=O)nc(-c3ccccc3F)c3cc(Cl)ccc32)cc1`, the survival was inactive: 83%.

As to `COC(=O)c1ccccc1N(C)S(=O)(=O)c1cc2c3c(c1)CC(=O)N3CCC2`, the survival was inactive: 78%.

With `Cc1cc(C)nc(-n2nc(C)c3c2N(Cc2ccccc2C)C(=O)CC3c2ccc(Cl)cc2)n1` (stereo not drawn), the survival is inactive: 72%.

On to `O=C(Nc1ccc(Oc2ccccc2)cc1)c1ccc(F)c(S(=O)(=O)N2CCN(c3ccccc3F)CC2)c1`, for which the survival is inactive: 87%.

As for `Cc1c(NS(=O)(=O)c2ccc(Cl)cc2)c(=O)n(-c2ccccc2)n1C`, the survival is inactive: 94%.

As for `Cc1nc2c(c(C)c1CCC(=O)Nc1ccc(F)cc1)c(=O)n(C)c(=O)n2C`, the survival was inactive: 99%.

`CCc1cccc(-n2nnc(S(=O)(=O)c3ccc(OC)cc3)c2C)c1`: the survival was inactive: 101%.

As to `COc1ccc(C2=NN(CCC(=O)NCCc3ccccc3)C(=O)CC2)cc1`, the survival is inactive: 117%.

Take `COc1ccccc1CCNC(=O)C(=O)NCC(c1cccnc1)N1CCN(c2ccccc2)CC1` (stereo not drawn): the survival was inactive: 51%.

As to `Cc1ccc(Cn2cc(CCC(=O)NCC(C)c3ccccc3)c3ccccc32)cc1` (stereo not drawn), the survival is inactive: 98%.

Take `COc1ccc(NC(=O)Cn2nnc(-c3nc(-c4ccncc4)no3)c2N)cc1OC`: the survival was inactive: 88%.

As for `Cc1cccc(C)c1NC(=O)C1CCCN1S(=O)(=O)c1cccc2nsnc12` (stereo not drawn), the survival was inactive: 51%.

As to `CCn1cc(C(=O)N2CCN(c3cccc(C)c3)C(C)C2)c(=O)c2cc(S(=O)(=O)N3CCOCC3)ccc21` (stereo not drawn), the survival was inactive: 87%.

For the compound `Nc1nc(Nc2cccc3ccccc23)nc(C2CCCC2=O)n1` (stereo not drawn), the survival is inactive: 60%.

`COc1ccc(-c2nsc(NC(=O)c3oc4ccccc4c3C)n2)cc1`: the survival is inactive: 72%.

Turning to `CCCNc1ncnc2c1c(-c1ccccc1)cn2-c1ccccc1`, the survival was inactive: 76%.

In the case of `Cc1coc2c(C)c3oc(=O)c(CCC(=O)N4CCCCC4)c(C)c3cc12`, the survival is active: 44%.

On to `COCCn1c(C)cc(O)c(C(c2ccccc2Cl)N2CCCCC2)c1=O` (stereo not drawn), for which the survival is inactive: 80%.

Take `N#Cc1ccccc1OCC(=O)N1CCN(c2ccccc2)CC1`: the survival was inactive: 90%.

On to `CN(C)c1ccc(CNC(=O)CCCN2C(=O)CCn3nc(-c4cn(C)c5ccccc45)cc32)cc1`, for which the survival is active: 17%.

In the case of `Cc1cc(=O)c2cc(C(=O)Nc3cccc(C)c3C)ccc2[nH]1`, the survival was inactive: 77%.

For the compound `Cc1ccc(NC(=O)c2cccc(NC(=O)N3CCSc4ncccc43)c2)cc1F`, the survival is inactive: 88%.

Regarding `CCOc1ccc(CNC(=O)c2ccc(NC(=O)N3CCSc4ncccc43)cc2)cc1`, the survival is inactive: 67%.

For the compound `CCCN1C(=O)c2oc3cc(C)cc(C)c3c(=O)c2C1c1ccc(F)cc1` (stereo not drawn), the survival is active: 49%.

Regarding `COc1ccc(-c2cc(C(F)(F)F)nc(SCC(=O)Nc3ccc(O)cc3)n2)cc1OC`, the survival was inactive: 63%.

As for `Cc1ccc(C)c(NC(=O)c2cnc3sc(N4CCOCC4)nn3c2=O)c1`, the survival was inactive: 116%.

In the case of `CCN(CC)CCCNC(=O)CCc1c(C)nc2c(c1C)c(=O)n(C)c(=O)n2C`, the survival was inactive: 96%.

Turning to `Cn1cc(C(=O)O)c(=O)c2cc(S(=O)(=O)N3CCOCC3)ccc21`, the survival was inactive: 67%.

Turning to `COc1ccccc1NC(=O)c1oc2ccccc2c1NC(=O)Cc1cccs1`, the survival is inactive: 72%.

For `COc1ccc(-n2c(SCC(=O)c3ccc(Cl)cc3)nc3c([nH]c4ccccc43)c2=O)cc1`, the survival was inactive: 69%.

With `COc1cccc(NC(=O)Cn2c(=O)n(-c3ccccc3)c(=O)c3ccc(C(=O)NCc4ccc5c(c4)OCO5)cc32)c1`, the survival was inactive: 106%.

As for `CCOC(=O)c1cc(=O)n2[nH]c(-c3ccc(C)cc3)cc2n1`, the survival is inactive: 84%.

`COc1cc2c(cc1OC)C(c1ccc(Cl)cc1)N(c1cccc(C#N)c1)C(=O)C2` (stereo not drawn): the survival is inactive: 89%.

`COc1ccccc1N1CCN(c2ccc(=O)n(CC(=O)Nc3cc(F)ccc3C)n2)CC1`: the survival is inactive: 91%.

Take `COc1ccccc1-c1nnc(C2CCN(S(=O)(=O)c3ccc(CC(C)C)cc3)CC2)o1`: the survival is inactive: 58%.

For the compound `Nc1c(C(=O)Nc2ccc(C(F)(F)F)cc2)sc2nc(-c3cccs3)ccc12`, the survival was inactive: 70%.

For `O=C(CCc1ccccc1)NCc1ccc2c(c1)CCN2C(=O)c1ccccc1`, the survival was inactive: 76%.

As to `COc1cccc(-c2nc(SCc3cccc(Br)c3)n3[nH]c(=O)cc3n2)c1`, the survival was inactive: 92%.

Take `Cc1cc(NC(=O)CSc2nc(-c3cccc(F)c3)nc3c2c(=O)n(C)c(=O)n3C)no1`: the survival is inactive: 78%.

Regarding `CCc1ccc(NC(=O)Cn2c(=O)n(CCCC(=O)NCc3ccccc3Cl)c(=O)c3ccccc32)cc1`, the survival is inactive: 105%.

For `Cc1ccc(-c2nc3cc(NC(=O)Cc4ccc(Cl)cc4)ccc3o2)cc1`, the survival is inactive: 68%.

Consider `COc1cc(NS(=O)(=O)c2ccc3c(c2)CC(C)N3C(=O)C2CCC2)cc(OC)c1OC` (stereo not drawn), for which the survival is inactive: 85%.

As for `COc1ccc2c(Sc3ccc(C)cc3)c(C(=O)NCC(C)c3ccccc3)[nH]c2c1` (stereo not drawn), the survival is inactive: 91%.
